Assay results from PMC9911399, “Two distinct binding modes provide the RNA-binding protein RbFox with extraordinary sequence specificity”.
Where a chain is given by its changes, count along the chain named. The list shows a part of the results.

T1: RBFOX1 RRM (Homo sapiens, UniProt Q9NWB1 109-208)
T1 sequence: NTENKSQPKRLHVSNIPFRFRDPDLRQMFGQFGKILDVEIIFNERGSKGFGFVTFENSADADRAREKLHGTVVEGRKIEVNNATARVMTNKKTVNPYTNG

B1: UUGCCUU (DNA:RNA)
RNA: GGGAGACCGGAAUUCAGAUUGUCCUUGCCUUUUAAAUCCCGUCGUAGCCACCA
DNA 1: CAATCTGAATTCCGGTCTCCC
DNA 2: TGGTGGCTACGACGGGATT
B2: GACCCGA (DNA:RNA)
RNA: B1 RNA with U25G, U26A, G27C, U30G, U31A
DNA 1: CAATCTGAATTCCGGTCTCCC
DNA 2: TGGTGGCTACGACGGGATT
B3: AAUCUAG (DNA:RNA)
RNA: B1 RNA with U25A, U26A, G27U, C29U, U30A, U31G
DNA 1: CAATCTGAATTCCGGTCTCCC
DNA 2: TGGTGGCTACGACGGGATT
B4: GGACUAC (DNA:RNA)
RNA: B1 RNA with U25G, U26G, G27A, C29U, U30A, U31C
DNA 1: CAATCTGAATTCCGGTCTCCC
DNA 2: TGGTGGCTACGACGGGATT
B5: AGUCUUU (DNA:RNA)
RNA: B1 RNA with U25A, U26G, G27U, C29U
DNA 1: CAATCTGAATTCCGGTCTCCC
DNA 2: TGGTGGCTACGACGGGATT
B6: CGGCGAU (DNA:RNA)
RNA: B1 RNA with U25C, U26G, C29G, U30A
DNA 1: CAATCTGAATTCCGGTCTCCC
DNA 2: TGGTGGCTACGACGGGATT
B7: UCUAGUC (DNA:RNA)
RNA: B1 RNA with U26C, G27U, C28A, C29G, U31C
DNA 1: CAATCTGAATTCCGGTCTCCC
DNA 2: TGGTGGCTACGACGGGATT
B8: AGGAUUC (DNA:RNA)
RNA: B1 RNA with U25A, U26G, C28A, C29U, U31C
DNA 1: CAATCTGAATTCCGGTCTCCC
DNA 2: TGGTGGCTACGACGGGATT
B9: AUUGGAA (DNA:RNA)
RNA: B1 RNA with U25A, G27U, C28G, C29G, U30A, U31A
DNA 1: CAATCTGAATTCCGGTCTCCC
DNA 2: TGGTGGCTACGACGGGATT
B10: UGACUCU (DNA:RNA)
RNA: B1 RNA with U26G, G27A, C29U, U30C
DNA 1: CAATCTGAATTCCGGTCTCCC
DNA 2: TGGTGGCTACGACGGGATT
B11: UAUAUUC (DNA:RNA)
RNA: B1 RNA with U26A, G27U, C28A, C29U, U31C
DNA 1: CAATCTGAATTCCGGTCTCCC
DNA 2: TGGTGGCTACGACGGGATT
B12: GGCUUUC (DNA:RNA)
RNA: B1 RNA with U25G, U26G, G27C, C28U, C29U, U31C
DNA 1: CAATCTGAATTCCGGTCTCCC
DNA 2: TGGTGGCTACGACGGGATT
B13: CUGUAGU (DNA:RNA)
RNA: B1 RNA with U25C, C28U, C29A, U30G
DNA 1: CAATCTGAATTCCGGTCTCCC
DNA 2: TGGTGGCTACGACGGGATT
B14: GUUAUAC (DNA:RNA)
RNA: B1 RNA with U25G, G27U, C28A, C29U, U30A, U31C
DNA 1: CAATCTGAATTCCGGTCTCCC
DNA 2: TGGTGGCTACGACGGGATT
B15: GGCUGGG (DNA:RNA)
RNA: GGGAGACCGGAAUUCAGAUUGUCCGGCUGGGUUAAAUCCCGUCGUAGCCACCA
DNA 1: CAATCTGAATTCCGGTCTCCC
DNA 2: TGGTGGCTACGACGGGATT
B16: AAAUAUC (DNA:RNA)
RNA: B15 RNA with G25A, G26A, C27A, G29A, G30U, G31C
DNA 1: CAATCTGAATTCCGGTCTCCC
DNA 2: TGGTGGCTACGACGGGATT
B17: AUGCGCC (DNA:RNA)
RNA: B1 RNA with U25A, C29G, U30C, U31C
DNA 1: CAATCTGAATTCCGGTCTCCC
DNA 2: TGGTGGCTACGACGGGATT
B18: CCGACGC (DNA:RNA)
RNA: B1 RNA with U25C, U26C, C28A, U30G, U31C
DNA 1: CAATCTGAATTCCGGTCTCCC
DNA 2: TGGTGGCTACGACGGGATT
B19: CCGCGUA (DNA:RNA)
RNA: B1 RNA with U25C, U26C, C29G, U31A
DNA 1: CAATCTGAATTCCGGTCTCCC
DNA 2: TGGTGGCTACGACGGGATT
B20: GCACACA (DNA:RNA)
RNA: B15 RNA with G26C, C27A, U28C, G29A, G30C, G31A
DNA 1: CAATCTGAATTCCGGTCTCCC
DNA 2: TGGTGGCTACGACGGGATT
B21: GAAGAUA (DNA:RNA)
RNA: B15 RNA with G26A, C27A, U28G, G29A, G30U, G31A
DNA 1: CAATCTGAATTCCGGTCTCCC
DNA 2: TGGTGGCTACGACGGGATT
B22: UGGCCGG (DNA:RNA)
RNA: B1 RNA with U26G, U30G, U31G
DNA 1: CAATCTGAATTCCGGTCTCCC
DNA 2: TGGTGGCTACGACGGGATT
B23: UCAAAAC (DNA:RNA)
RNA: B1 RNA with U26C, G27A, C28A, C29A, U30A, U31C
DNA 1: CAATCTGAATTCCGGTCTCCC
DNA 2: TGGTGGCTACGACGGGATT
B24: AUCGGCA (DNA:RNA)
RNA: B15 RNA with G25A, G26U, U28G, G30C, G31A
DNA 1: CAATCTGAATTCCGGTCTCCC
DNA 2: TGGTGGCTACGACGGGATT
B25: GUUGAUC (DNA:RNA)
RNA: B1 RNA with U25G, G27U, C28G, C29A, U31C
DNA 1: CAATCTGAATTCCGGTCTCCC
DNA 2: TGGTGGCTACGACGGGATT
B26: UCCGACA (DNA:RNA)
RNA: B15 RNA with G25U, G26C, U28G, G29A, G30C, G31A
DNA 1: CAATCTGAATTCCGGTCTCCC
DNA 2: TGGTGGCTACGACGGGATT
B27: AUGGCAC (DNA:RNA)
RNA: B1 RNA with U25A, C28G, U30A, U31C
DNA 1: CAATCTGAATTCCGGTCTCCC
DNA 2: TGGTGGCTACGACGGGATT
B28: CCCCGGG (DNA:RNA)
RNA: B15 RNA with G25C, G26C, U28C
DNA 1: CAATCTGAATTCCGGTCTCCC
DNA 2: TGGTGGCTACGACGGGATT
B29: GCCGACU (DNA:RNA)
RNA: B15 RNA with G26C, U28G, G29A, G30C, G31U
DNA 1: CAATCTGAATTCCGGTCTCCC
DNA 2: TGGTGGCTACGACGGGATT
B30: GUCGCUG (DNA:RNA)
RNA: B15 RNA with G26U, U28G, G29C, G30U
DNA 1: CAATCTGAATTCCGGTCTCCC
DNA 2: TGGTGGCTACGACGGGATT
B31: CCGGCUU (DNA:RNA)
RNA: B1 RNA with U25C, U26C, C28G
DNA 1: CAATCTGAATTCCGGTCTCCC
DNA 2: TGGTGGCTACGACGGGATT

target: T1, RBFOX1 RRM; assay: EMSA; HiTS-Eq, 1 nM pool, 10 min; buffer printed only for the single-RNA assays: 10 mM Tris pH 7.5, 150 mM NaCl, 3.4 mM EDTA, 0.001% NP-40, 30 C; conditions: tags: His6 N-terminal (pET28a); label: 5' 32P
Procedure, shortened: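 These values rest on relative association constants, computed from read-count changes of each RNA species versus the control reaction and normalised to the cognate motif. Reads came from free RNA recovered by 8% native PAGE after purified RbFox RRM (wild type or mutant) at increasing concentrations was equilibrated for 10 min in 50 µL with 1 nM of a 5′-radiolabelled pool with 7 randomized nucleotides and DNA-annealed flanks.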

| Binder | binding signal |
| --- | --- |
| B1 | 0.0139 KA relative to UGCAUGU |
| B2 | 0.00835 KA relative to UGCAUGU |
| B3 | 0.00429 KA relative to UGCAUGU |
| B4 | 0.0184 KA relative to UGCAUGU |
| B5 | 0.0108 KA relative to UGCAUGU |
| B6 | 0.014 KA relative to UGCAUGU |
| B7 | 0.00964 KA relative to UGCAUGU |
| B8 | 0.0164 KA relative to UGCAUGU |
| B9 | 0.00344 KA relative to UGCAUGU |
| B10 | 0.0132 KA relative to UGCAUGU |
| B11 | 0.00415 KA relative to UGCAUGU |
| B12 | 0.0152 KA relative to UGCAUGU |
| B13 | 0.011 KA relative to UGCAUGU |
| B14 | 0.00651 KA relative to UGCAUGU |
| B15 | 0.00742 KA relative to UGCAUGU |
| B16 | 0.000252 KA relative to UGCAUGU |

| Binder | binding signal |
| --- | --- |
| B17 | 0.0101 KA relative to UGCAUGU |
| B18 | 0.00496 KA relative to UGCAUGU |
| B19 | 0.00752 KA relative to UGCAUGU |
| B20 | 0.00795 KA relative to UGCAUGU |
| B21 | 0.00918 KA relative to UGCAUGU |
| B22 | 0.0318 KA relative to UGCAUGU |
| B23 | 0.00177 KA relative to UGCAUGU |
| B24 | 0.00854 KA relative to UGCAUGU |
| B25 | 0.0229 KA relative to UGCAUGU |
| B26 | 0.00816 KA relative to UGCAUGU |
| B27 | 0.0109 KA relative to UGCAUGU |
| B28 | 0.00595 KA relative to UGCAUGU |
| B29 | 0.0127 KA relative to UGCAUGU |
| B30 | 0.0207 KA relative to UGCAUGU |
| B31 | 0.0161 KA relative to UGCAUGU |
